# Assay results from PubChem BioAssay AID463173 (ICCB-Longwood Screening Facility, Harvard Medical School, 2010).
# Hit rate of the full screen: of about 52,000 compounds, about 4,300 (8.3%) were called active. Rule as the data show it: active = survival mostly below about 52% (no sharp cut-off); inactive = mostly above about 56%. Some of the results follow.
# System: DeltatarO mutant
# Test: S. aureus survival, RN4220 and DeltatarO strains – OD600, teichoic acid synthesis inhibitors, primary screen (AID 463173)
# Conditions: S. aureus RN4220 wild type/DeltatarO growth, OD600, 18 h, hits give low values, screened at 18.75 µg/mL (by protocol)
row,SMILES,survival
1,COc1cccc2c1Oc1nc(-c3ccccc3)nc(SCC(=O)Nc3ccccc3)c1C2,inactive: 81%
2,COc1ccc(NC(=O)Cn2c(=O)oc3cc(S(=O)(=O)N4CCCCC4C)ccc32)cc1 (stereo not given),active: 47%
3,Cc1oc(-c2ccc(C(=O)NC(C)c3ccccc3)cc2)nc1CS(=O)(=O)c1ccccc1 (stereo not given),inactive: 96%
4,COC(=O)c1ccccc1NC(=O)CCCN1C(=O)C(c2ccccc2)Oc2cccnc21 (stereo not given),inactive: 78%
5,CCOc1ccccc1NC(=O)n1ncc2cc(Cl)ccc21,inactive: 99%
6,C=CCNC(=O)CN1CCC(n2nnc3cc(C(F)(F)F)ccc32)CC1,inactive: 79%
7,Cc1ccc(CCNC(=O)c2ccc(CS(=O)(=O)c3ccc(Cl)cc3)o2)cc1,inactive: 102%
8,COCCNC(=O)CCCN1C(=O)CCn2nc(-c3cccn3C)cc21,inactive: 86%
9,COc1ccc(CCn2c(=O)[nH]c3cc(C(=O)N4CCN(c5ccccc5)CC4)ccc3c2=O)cc1OC,inactive: 73%
10,Fc1ccc(-c2cn3cc(Cc4ccccc4Cl)sc3n2)cc1,active: 42%
11,Cc1cc(O)c(C(c2ccc(Cl)cc2)N2CCN(c3ccccc3)CC2)c(=O)n1Cc1ccco1 (stereo not given),inactive: 83%
12,Cc1cc2ccccc2n1CCNC(=O)c1ccc(F)cc1,inactive: 85%
13,CCN1C(=O)C2(c3ccccc31)c1c(oc3ccc(C)cc3c1=O)C(=O)N2CCCOC(C)C (stereo not given),inactive: 49%
14,CC1=C(c2ccc(C)cc2)S(=O)(=O)N(Cc2ccc(C(=O)Nc3ccccc3C)cc2)C1=O,inactive: 94%
15,Cc1ccc(Cl)cc1N(C)C(=O)c1noc2c1CCCCC2,inactive: 57%
16,COc1ccc(NC(=O)c2sc3nc(C)c(C(=O)Nc4ccc(C)cc4C)c(-c4ccccc4Cl)c3c2N)cc1,inactive: 89%
17,CSCCC(NS(=O)(=O)c1ccc2c(c1)oc(=O)n2C)C(=O)NCc1ccc(F)cc1 (stereo not given),inactive: 108%
18,COc1ccc(-n2cc(C(=O)N(C)c3cc(C)ccc3OC)c3ccccc3c2=O)cc1,inactive: 109%
19,O=C(Nc1ccccn1)c1cccs1,inactive: 109%
20,O=C(O)C1=C(C(=O)Nc2cccc(C(F)(F)F)c2)CCCC1,inactive: 74%
21,COc1ccccc1NC(=O)C1=C(C)Nc2nc(SCC(=O)c3ccc(C)cc3)nn2C1c1ccccc1C (stereo not given),inactive: 71%
22,CCOc1ccc(NS(=O)(=O)c2ccc3[nH]cc(C(=O)NCCOC)c(=O)c3c2)cc1,inactive: 72%
23,CN(C)CCNC(=O)CCCn1c(=O)c2cccn2c2ccccc21,inactive: 64%

row,SMILES,survival
1,CC(=O)Nc1ccc(NS(=O)(=O)c2cc(Br)cc3c2N(C(=O)C2CC2)CC3)cc1,inactive: 74%
2,COc1cc(OC)c(NC(=O)c2cc(C(C)=O)n3ccccc23)cc1Cl,inactive: 85%
3,O=C1/C(=C/C2=Cc3ccccc3OC2)SC(=S)N1C1CCS(=O)(=O)C1 (stereo not given),active: 44%
4,COc1ccc(C)cc1NS(=O)(=O)c1c(C)nc2sc(C)cn2c1=O,inactive: 121%
5,CCOc1ccccc1NC(=O)CSc1ccc2nnc(CCNS(=O)(=O)c3ccccc3)n2n1,inactive: 50%
6,COCCNC(=O)CCCn1c(=O)[nH]c2ccsc2c1=O,inactive: 79%
7,Brc1ccc(-c2noc(-c3ccccc3)n2)o1,inactive: 75%
8,Clc1cccc(Cl)c1COc1ccccn1,inactive: 60%
9,CN1C(C(=O)c2ccccc2)=C(NC(=O)c2ccc(F)cc2)c2ccccc2S1(=O)=O,inactive: 96%
10,CCOc1ccc(-c2cc(C(=O)NC(C)c3ccccc3)c3ccccc3n2)cc1 (stereo not given),inactive: 80%
11,COc1ccc(COC(=O)C2=C(C)NC(=O)CC2c2cccc(Cl)c2Cl)cc1 (stereo not given),inactive: 85%
12,O=C(Nc1ccc(C(=O)N2CCN(c3ccccc3F)CC2)cc1)c1nsc2ccccc12,inactive: 79%
13,CCOCCCNc1nc2c(S(=O)(=O)c3ccc(CC)cc3)nnn2c2ccc(Cl)cc12,inactive: 78%
14,O=C(Cn1ncc2c3ccccc3n(Cc3cccc(Cl)c3)c2c1=O)NCCCN1CCCCC1,inactive: 113%
15,Cc1ccccc1NC(=O)C(C)Sc1nnc(-c2ccccc2O)o1 (stereo not given),inactive: 69%
16,Cc1ccc(CNC(=O)Cn2c(=O)cc(C)c3c(C)nn(-c4cccc(F)c4)c32)cc1,inactive: 68%
17,Cc1ccc(C)c(N2CCN(S(=O)(=O)c3ccc(-c4cnc(C5CC5)o4)cc3)CC2)c1,inactive: 80%
18,CCc1oc(C(=O)O)cc1COC,inactive: 105%
19,CCOc1ccccc1CN1CCc2nc(N3CCN(C)CC3)ncc2C1,active: -2%
20,Cc1ccc(NC(=O)CSc2nc(-c3cccs3)nc3cc(=O)[nH]n23)cc1C,inactive: 67%
21,COc1ccc(-c2cn3cccnc3n2)cc1NC(=O)Nc1cc(C)ccc1C,inactive: 63%
22,O=C(NCCc1ccccc1)C1CCN(Cc2cc3ccccc3n2Cc2ccccc2)CC1,inactive: 79%
23,CC(=O)C1=C(c2ccc(F)cc2)N(C(C)=O)n2c(nnc2C2CCCCC2)S1,inactive: 88%

row,SMILES,survival
1,Cc1cccc(OCc2nnc(SCC(N)=O)o2)c1,inactive: 91%
2,CCOc1ccc(C(=O)NCC(c2ccc(Cl)cc2)N2CCCCC2)cc1 (stereo not given),inactive: 78%
3,O=C(NCCc1ccc(Cl)cc1)c1ccc2c(c1)nc1n2CCOC1,inactive: 76%
4,CN(C)CCN(Cc1ccco1)C(=O)c1cc2c(s1)-c1ccccc1OC2,inactive: 69%
5,COc1ccc(-c2onc(C)c2C)cc1S(=O)(=O)Nc1cccc(C#N)c1,inactive: 126%
6,CCOC(=O)N1CCc2c(sc3c2c(=O)n(-c2ccc(F)cc2)c(=O)n3CC(=O)c2ccc(Cl)cc2)C1,inactive: 71%
7,CCc1ccc(NS(=O)(=O)c2ccc(-c3cc(C)no3)cc2)cc1,inactive: 102%
8,Cc1cccc(NC(=O)C2CC(=O)NC(Nc3nc4ccccc4s3)=N2)c1 (stereo not given),inactive: 83%
9,CCNC(=S)N1CCN(C(=O)C(Cc2ccccc2)NC(C)=O)CC1 (stereo not given),inactive: 94%
10,O=C(CN1C(=O)C2(SCC(=O)N2c2cccc(F)c2)c2ccccc21)NCCc1ccccc1 (stereo not given),inactive: 68%
11,CC(=O)Nc1ccc(NC(=O)Cc2ccccc2)cc1,inactive: 115%
12,O=C(NCCc1csc(-c2cccnc2)n1)c1ccccc1,inactive: 77%
13,Cc1ccccc1C(=O)OCc1cc(=O)n2nc(C3CCCCC3)sc2n1,inactive: 83%
14,Cc1nnc2c(N3CCN(c4ccc(F)cc4)CC3)nc3ccc(C(=O)c4ccccc4)cc3n12,inactive: 144%
15,O=C1C2C3c4ccccc4C(c4ccccc43)C2C(=O)N1CCN1CCNCC1 (stereo not given),inactive: 76%
16,Cc1cc(C)c(NC(=O)C(C)n2c(=O)cc(-c3ccccc3)c3c(C)nn(C)c32)c(C)c1 (stereo not given),inactive: 83%
17,CCCCNc1ccc(-c2nc(-c3ccccn3)no2)cc1[N+](=O)[O-],active: 46%
18,COc1ccc(-c2nnn3c2nc(NCc2ccc(C)cc2)c2ccccc23)cc1,inactive: 84%
19,CCCNC(=O)CSc1c(CCC)cnc2c1c(=O)n(C)c(=O)n2C,inactive: 77%
20,COc1ccc(OC)c(NC(=O)Cn2ccn(-c3ccc(OC)c(OC)c3)c(=O)c2=O)c1,inactive: 91%
21,O=C(N1CCOCC1)N1CCC(c2ccc(F)cc2)CC1,inactive: 95%
22,CCc1ccc(NC(=O)Nc2ccccc2OCc2cc(=O)n3ccccc3n2)cc1,inactive: 65%
23,CCOC(=O)c1cc(-c2ccc(OC)c(S(=O)(=O)NCc3ccccc3Cl)c2)on1,inactive: 88%

row,SMILES,survival
1,CC1CCCCN1CCCNC(=O)CN1C(=O)CSc2ccc(S(=O)(=O)N3CCOCC3)cc21 (stereo not given),inactive: 101%
2,O=C(NCc1ccc(Cl)cc1)C1=Cc2cc(Br)ccc2OC1,inactive: 94%
3,CCC(=O)N1CCc2cc(Br)cc(S(=O)(=O)N3CCCC(C(=O)Nc4cc(C)ccc4OC)C3)c21 (stereo not given),inactive: 84%
4,CCOc1ccc(NC(=O)CN2C(=O)C(c3ccc(Cl)cc3)=NC2(C)C)cc1,inactive: 85%
5,Cc1ccc(Cl)cc1N1CCN(C(=O)c2cc3ccc4cccnc4c3[nH]2)CC1,inactive: 131%
6,Oc1cccc(/C=N/N=C/c2cccc(O)c2O)c1O,inactive: 110%
7,COc1ccc(C)cc1NC(=O)c1c2c(nc3ccccc13)C(=O)N(C1CCCCC1)C2,inactive: 63%
8,Cc1ccc(Cl)cc1NC(=O)C(Cc1ccccc1)NS(=O)(=O)c1cccc2nsnc12 (stereo not given),inactive: 79%
9,CCN(C(=O)CSc1ncc2c(n1)-c1cc(Cl)ccc1N(Cc1ccccc1)S2(=O)=O)c1cccc(C)c1,inactive: 83%
10,CCc1c(C)sc2c1CCN(C(=O)Nc1ccccc1C(=O)OC)C2c1ccc(OC)cc1 (stereo not given),inactive: 92%
11,Cc1ccc(NS(=O)(=O)c2ccc3c(c2)CC(=O)N3)cc1Cl,active: 47%
12,COc1ccc(OC)c(C2Nc3c(C)cc(C)cc3-c3cc(C)nn32)c1 (stereo not given),active: -3%
13,CCOc1ccccc1NC(=O)Cn1ncc2c([nH]c3ccccc32)c1=O,inactive: 126%
14,CCn1c(=O)c2cc(C(=O)NCCCN3CCN(c4ccc(F)cc4)CC3)sc2c2ccccc21,inactive: 58%
15,O=C(NCc1ccccc1)C1CCN(C(=O)NCc2ccccc2)CC1,inactive: 90%
16,O=C1/C(=C/c2ccco2)SC(=S)N1CCc1ccccc1,inactive: 95%
17,Cc1ccccc1OCC(=O)Nc1nnc(S(=O)(=O)N2CCCC2)s1,active: 42%
18,CC(C)Oc1ccc(CNC(=O)c2ccc3c(c2)nc2n3CCCCC2)cc1,inactive: 91%
19,COc1cc(OC)c(NC(=O)c2c(N3CCCC3=O)c3cc(C)ccc3n2C)cc1Cl,inactive: 67%
20,COc1ccc(OC)c(CNC(=O)c2ccc3nc(C(C)C)oc3c2)c1,inactive: 91%
21,COc1ccc(Cl)cc1C(=O)Nc1ccc2nc(Nc3cccc(Cl)c3)cc(C)c2c1,inactive: 93%
